Consider 100 compounds from PubChem BioAssay AID1159614 (National Center for Advancing Translational Sciences (NCATS), 2016).

Molecules are shown by their SMILES. The whole screen tested about 45,000 compounds, of which about 65 (0.1%) were called active. The call rests on the fitted dose curve; in most records, active means well fitted activation curve with a large enough effect; inconclusive means small, poorly fitted or top-dose-only effect; inactive means no such curve, though single readings can be large or run the other way. The list shows a part of the results.

UniProt P54803, sequence (P54803 whole entry, looked up): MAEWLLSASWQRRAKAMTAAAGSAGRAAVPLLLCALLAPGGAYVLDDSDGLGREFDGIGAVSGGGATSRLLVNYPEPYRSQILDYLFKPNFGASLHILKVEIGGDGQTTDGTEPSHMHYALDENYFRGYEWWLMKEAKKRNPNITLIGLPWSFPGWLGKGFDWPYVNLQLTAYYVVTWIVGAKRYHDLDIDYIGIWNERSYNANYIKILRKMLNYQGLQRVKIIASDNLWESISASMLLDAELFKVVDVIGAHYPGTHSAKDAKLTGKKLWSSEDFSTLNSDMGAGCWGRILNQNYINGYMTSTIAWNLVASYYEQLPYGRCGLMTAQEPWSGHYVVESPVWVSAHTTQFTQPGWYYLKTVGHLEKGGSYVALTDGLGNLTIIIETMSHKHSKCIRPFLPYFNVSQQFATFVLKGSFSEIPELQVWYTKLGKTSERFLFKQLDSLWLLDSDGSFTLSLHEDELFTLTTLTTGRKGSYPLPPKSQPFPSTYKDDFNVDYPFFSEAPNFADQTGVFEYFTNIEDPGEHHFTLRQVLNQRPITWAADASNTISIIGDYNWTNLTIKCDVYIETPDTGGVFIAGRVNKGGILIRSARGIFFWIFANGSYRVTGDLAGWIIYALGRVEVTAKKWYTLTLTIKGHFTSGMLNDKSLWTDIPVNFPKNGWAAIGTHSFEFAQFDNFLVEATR

The assay addresses Galactocerebrosidase (Homo sapiens) (UniProt P54803). Briefly: A Novel Cell-Based Assay to Identify Small Molecules for B -Galactocerebrosidase. Further: 0% is about no effect; nearly all actives have a fitted effect of over 65% in size. As to conditions: 145M-Twi-hGALC-G270D cells, HMU-beta-Gal fluorescence, 48 h; series mostly up to 57.5 µM; activation: at the top concentration. The gist of the method:
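qHTS, 1536-well; 145M-Twi-hGALC-G270D cells (WT line also made) in DMEM/F12 + 10% FBS; compound incubation on live cells; HMU-β-gal 0.1 mM final, pH 5.2, NaTC; carbonate stop; fluorescence increase = enhanced residual activity.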
Turning to `Cc1ccccc1C(=O)Nc1nnc(S(=O)(=O)N2c3ccccc3CC2C)s1` (stereo not given), the “activation” value is inactive: -9.69%.
In the case of `Cc1nn(-c2ccccc2)c2nc(C3CC3)cc(C(=O)Nc3ccccc3F)c12` it was inactive: -1.08%.
In the case of `Cc1ccc(CNC(=O)CSc2cc(C)[nH]c(=O)n2)cc1` it was inactive: -10%.
The value for `COc1ccc(-c2noc(CNC(=O)c3ccco3)n2)cc1` was inactive: -14%; that for `O=C(NCc1ccco1)c1ccc2c(c1)N(Cc1cccc(Cl)c1)C(=O)c1ccccc1S2(=O)=O` was inactive: -14.7%; that for `COc1ccc(CCNc2ncnc3c2cnn3-c2ccc(C)cc2)cc1` was inactive: -4.36%.
As for `O=C(O)[C@H](O)c1ccccc1`, the “activation” value was inactive: -16%.
The value for `Fc1ccc(CN2CCc3nc(Nc4ccccc4)ncc3C2)cc1F` was inactive: -1.88%.
The value for `CN1C(=O)c2ccccc2Sc2ccc(NC(=O)COc3ccc(F)cc3)cc21` was inactive: 2.09%.
In the case of `COc1ccc(C(c2c(O)cc(C)n(Cc3ccco3)c2=O)N2CCCCC2)cc1OC` (stereo not given) it was inactive: -7.78%; in that of `C(=C\c1ccccc1)/CN1CCN(C(c2ccccc2)c2ccccc2)CC1`, inactive: -20.5%.
On to `CC1CCN(C(=O)CSc2nc(-c3ccccc3)no2)CC1`, for which the “activation” value was inactive: -5.04%.
`Cc1c(NS(=O)(=O)c2ccccc2)cc(C(C)C)c(O)c1S(=O)(=O)c1ccc(Cl)cc1`: the “activation” value was inactive: -13%.
Take `COc1cc(C(=O)N2CCC(c3nc4ccccc4o3)CC2)cc(OC)c1OC`: the “activation” value is inactive: -14.8%.
`COc1cc(Cl)c(C)cc1NC(=O)c1ccc2c(Cl)c3c(nc2c1)CCC3`: the “activation” value was inactive: -12.6%.
As to `CCN(CC)CC(=O)Oc1ccc(NC(C)=O)cc1`, the “activation” value was inactive: -4.48%.
Regarding `CCOc1cccc(CC(=O)N2CCc3c([nH]c4ccccc34)C2c2ccc(Cl)cc2)c1OCC` (stereo not given), the “activation” value is inactive: -23.6%.
As to `CCOC(=O)c1cccc(NC(=O)c2ccc3c(Cl)c4c(nc3c2)CCC4)c1`, the “activation” value is inactive: 8.02%.
The value for `O=C(NCCCN1CCN(c2ccc(F)cc2)CC1)Nc1ccc(Cl)cc1` was inactive: -24.2%; that for `CCOC(=O)c1c(NC(=O)c2ccccc2Cl)sc2c1CCCC2` was inactive: -13.3%; that for `COCCNC(=O)c1c(C)oc2nc(C)nc(N3CCOCC3)c12` was inactive: -9.45%.
As to `Cc1ccc2c(c1)NC(c1cccnc1)=NC(c1ccc(F)cc1)=N2`, the “activation” value was inactive: -14.7%.
In the case of `Cc1ccc(C)c(NC(=O)Cn2c(=O)n(Cc3ccco3)c(=O)c3oc4ccccc4c32)c1` it was inactive: -10.9%; in that of `Cc1ccc(-c2nnc(SCc3ccccc3C#N)o2)cc1`, inactive: -4.81%.
In the case of `Cc1ccc(CN2C(=O)C(O)(c3c[nH]c4ccccc34)c3cc(Cl)ccc32)cc1` (stereo not given) it was inactive: -13.4%; in that of `COc1cccc(-c2nc(CS(=O)(=O)CC(=O)NCc3ccc(C)cc3)c(C)o2)c1`, inactive: -21%.
Regarding `COc1ccc2c(c1)c(CC(=O)O)c(C)n2C(=O)c1ccc(Cl)cc1`, the “activation” value was inactive: -11.8%.
The value for `Cc1cccc(OCC(=O)OCc2cc(=O)n3nc(C4CCCCC4)sc3n2)c1` was inactive: -19.2%.
Consider `CCOC(=O)C(CC)n1nc(C)n2c(cc3occc32)c1=O` (stereo not given), for which the “activation” value was inactive: -7.12%.
In the case of `COc1ccc(C(=O)COC(=O)c2cccc(NC(=O)c3ccc(OC)c(OC)c3)c2)cc1` it was inactive: -16.4%; in that of `Nc1nc2ccc(OC(F)(F)F)cc2s1`, inactive: -13.5%; in that of `Oc1cc(O)c2c(c1)O[C@H](c1ccc(O)c(O)c1)[C@H](O)C2`, inactive: -30.8%.
In the case of `O=C(NC1CCCCCC1)C1CCN(C(=O)N2CCOc3ccccc32)CC1` it was inactive: -6.57%; in that of `Cc1ccc(S(=O)(=O)NCC(c2ccc(N(C)C)cc2)N2CCOCC2)cc1` (stereo not given), inactive: -18.7%; in that of `CN1CCC(=C2c3ccccc3CCc3cccnc32)CC1`, inactive: -2.56%.
Turning to `COc1ccc(C(=O)c2cn(Cc3ccc(F)cc3)c3ccc(C)cc3c2=O)cc1`, the “activation” value was inactive: -12.3%.
Turning to `Cc1csc2nc(-c3cccc(NC(=O)c4ccccc4Cl)c3)cn12`, the “activation” value was inactive: -9.06%.
`Cc1ccc(-c2nc3ccccn3c2Nc2ccc3c(c2)OCO3)cc1`: the “activation” value was inactive: -14.3%.
In the case of `COc1ccnc2c1CCCCC2S(=O)c1nc2ccccc2[nH]1` (stereo not given) it was inactive: -18.7%; in that of `COc1cc(/C=C(\C#N)c2nc3ccccc3n2C)cc(OC)c1OC`, inactive: -17.1%.
`Cc1ccc(NC(=O)c2cc(S(=O)(=O)N3CCCC(C)C3)cn2C)c(Br)c1` (stereo not given): the “activation” value is inactive: 17.8%.
The value for `Cc1nc(C)c(-c2ccc(SCC(=O)Nc3ccc(F)c(F)c3)nn2)s1` was inactive: 5.42%; that for `COc1cc(OC)c(N(C)C(=O)Cn2ncc3c([nH]c4ccccc43)c2=O)cc1Cl` was inactive: -7.25%.
Regarding `O=c1c2cc3c(cc2nc2sc(Nc4ccc(F)c(Cl)c4)nn12)OCO3`, the “activation” value is inactive: -12.4%.
The value for `CCN1CCN(c2oc(/C=C/c3ccccc3OC)nc2C#N)CC1` was inactive: -9.79%; that for `Cn1c(=O)c2c(-c3cccc(Br)c3)n(CCO)cc2n(C)c1=O` was inactive: -16%; that for `CCc1ccc(CN(Cc2cn[nH]c2-c2ccc(OC)cc2)C(=O)Nc2ccc(C)c(F)c2)cc1` was inactive: -9.78%.
As for `CC1CCN(CCCNC(=O)c2cc(Sc3ccc(F)cc3)nc3ccccc23)CC1`, the “activation” value is inactive: -14.3%.
In the case of `Cc1ccc(-n2c(=O)c3ccc(C(=O)NCc4ccccc4Cl)cc3n(Cc3ccccc3F)c2=O)cc1` it was inactive: 7.17%; in that of `CCOC(=O)c1c(-c2ccc(C)cc2)csc1NC(=O)c1nc(SCC)ncc1Cl`, inactive: -17.2%; in that of `COc1cccc(NS(=O)(=O)c2ccc3[nH]cc(C(=O)N4CCCCCC4)c(=O)c3c2)c1`, inactive: 8.08%.
On to `COc1ccc(Cn2c(=O)c3cccnc3n(Cc3cccc(OC)c3)c2=O)cc1`, for which the “activation” value was inactive: -10.3%.
On to `Cc1ccc(NC(=O)c2oc3ccccc3c2NC(=O)c2ccccc2C)cc1`, for which the “activation” value was inactive: -8.08%.
In the case of `O=C(NC1CC(=O)N(c2cccc(F)c2)C1)C1CC1` (stereo not given) it was inactive: 4.48%.
The value for `CSc1nnc(NC(=O)Cc2coc3cc(C)ccc23)s1` was inactive: 11.6%; that for `Nc1cccc(-c2cn3ccsc3n2)c1` was inactive: -6.34%; that for `CCCCC(CC)CNC(=O)C1CCN(S(=O)(=O)c2cccc3nsnc23)CC1` (stereo not given) was inactive: -16.4%.
In the case of `Cc1ccc(C)c(N2CCN(CCCNC(=O)Cn3ncc4c5ccccc5n(C)c4c3=O)CC2)c1` it was inactive: -6.72%; in that of `O=S(=O)(c1ccccc1)c1nc(-c2cccs2)oc1SCc1ccccc1F`, inactive: -4.13%; in that of `Cc1ccccc1NC(=O)CCn1cnc2onc(-c3ccc(F)cc3)c2c1=O`, inactive: 16%.
For the compound `CCC(C)(C)C1CCc2c(sc(NC(=O)C3c4ccccc4Oc4ccccc43)c2C(N)=O)C1` (stereo not given), the “activation” value is inactive: -15.6%.
In the case of `N#Cc1nc(-c2ccc(COc3ccc(Cl)cc3)o2)oc1N1CCN(c2ccccc2)CC1` it was inactive: -15.8%; in that of `Cc1ccc(NS(=O)(=O)c2c(C(=O)N3CCC(C)CC3)c(C)n(C)c2C)cc1Cl`, inactive: -36.6%; in that of `CCOc1ccc(NC(=O)CCn2cnc3onc(-c4ccc(F)cc4)c3c2=O)cc1`, inactive: -13.8%.
For the compound `Cc1ccc(CN2CCSc3ccc(C(=O)N4CCN(c5cc(C)ccc5C)CC4)cc32)cc1`, the “activation” value was inactive: -16.8%.
In the case of `OC[C@H]1O[C@H](O[C@]2(CCl)O[C@H](CCl)[C@@H](O)[C@@H]2O)[C@H](O)[C@@H](O)[C@H]1Cl` it was inactive: -15.3%; in that of `O=C(CSc1nc2c(oc3ccccc32)c(=O)n1-c1ccccc1F)Nc1ccccc1`, inactive: -9.26%.
The value for `CCOC(=O)c1c(S(=O)(=O)N2CCCC(C(=O)N3CCN(c4cccc(C)c4C)CC3)C2)c(C)n(C)c1C` (stereo not given) was inactive: -17.1%.
Take `O=C(CN1C(=O)COc2ccc(S(=O)(=O)N3CCOCC3)cc21)NCc1ccc(F)cc1`: the “activation” value was inactive: -19.2%.
Regarding `CCOc1cc(S(=O)(=O)n2ccnc2C(C)C)ccc1Cl`, the “activation” value is inactive: -14.8%.
As for `Cc1ccc(Nc2c3c(nc4nncn24)CCC3)cc1C`, the “activation” value was inactive: 0.465%.
The value for `CC(C)CN1CCc2nc(N3CCN(C)CC3)ncc2C1` was inactive: -7.47%; that for `Cn1c(=O)cc(SCC(=O)N2CCN(c3ccc(F)cc3)CC2)c2ccc(Cl)cc21` was inactive: -21.1%.
In the case of `CC(=O)N1CCc2cc(Br)cc(S(=O)(=O)N3CCC(C(=O)N(C)c4cc(C)ccc4C)CC3)c21`, the “activation” value is inactive: -7.54%.
The value for `COc1ccc(-c2cc3ccc(O)c(CN4CCOCC4)c3oc2=O)cc1` was inactive: -23.5%; that for `Cc1cccc(NC(=O)CSc2nc(-c3ccco3)nc3cc(=O)[nH]n23)c1` was inactive: -9.42%.
In the case of `COc1cc(NC(=O)c2ccccc2)ccc1NC(=O)c1cc2ccccc2o1` it was inactive: -18%; in that of `Cc1cccc(NC(=O)c2nc(S(C)(=O)=O)ncc2Cl)c1`, inactive: -31.3%.
With `CCn1cc(C(=O)N2CCN(c3ccccc3F)CC2)c(=O)c2cc(S(=O)(=O)N(C)C3CCCCC3)ccc21`, the “activation” value was inactive: 0.824%.
In the case of `CCOC(=O)c1c(C)oc2nc(C)nc(NCc3ccc(Cl)cc3)c12` it was inactive: -16.1%; in that of `CCc1ccc(NC(=O)C2CCN(S(=O)(=O)c3ccc4[nH]c5c(c4c3)CCCCC5)CC2)cc1`, inactive: -1.72%.
Regarding `O=C(CCn1c(=O)c2ccccc2n(Cc2ccc(F)cc2Cl)c1=O)NCc1ccc2c(c1)OCO2`, the “activation” value was inactive: -6.31%.
In the case of `COC(=O)c1c(SC)nc2ccccc2c1OCc1ccccc1C` it was inactive: -12.4%; in that of `COc1ccc(-c2ccc3c(N)c(C(=O)NCc4ccc(Cl)cc4)sc3n2)cc1`, inactive: -21%; in that of `Cc1ccc(CNC(=O)C2CCN(c3nc4ccccc4n(C)c3=O)CC2)cc1`, inactive: -4.2%.
Consider `CCOC(=O)CSc1nc2c(sc3ccccc32)c(=O)n1CCc1ccccc1`, for which the “activation” value was inactive: -14.7%.
Turning to `O=[N+]([O-])c1cc(-c2nc(-c3ccccc3)no2)ccc1N1CCN(c2ccccc2)CC1`, the “activation” value is inactive: -7.83%.
The value for `Cn1cc(S(=O)(=O)N2CCCCCC2)cc1C(=O)N1CCN(c2cccc(Cl)c2)CC1` was inactive: -42.4%; that for `CCOC(=O)c1noc2ncnc(Nc3ccc(F)cc3F)c12` was inactive: -5.57%.
With `Cc1cccc(C)c1NC(=O)Cn1c(=O)n(CC2CCC(C(=O)NCCc3ccccc3)CC2)c(=O)c2ccccc21` (stereo not given), the “activation” value is inactive: 4.22%.
`CCOC(=O)C1CCN(C(=O)C2CCN(C3=NS(=O)(=O)C(c4ccc(C)cc4)=C3CC)CC2)CC1`: the “activation” value is inactive: -14.9%.
The value for `Cc1ccc(NC(=O)Cn2nnc(-c3nc(-c4ccncc4)no3)c2N)cc1` was inactive: -8.84%; that for `Cc1ccc(C(=O)O)cc1Nc1nc2ccccc2n2nnnc12` was inactive: 1.11%; that for `Cc1ccc(Cl)cc1N1CCN(C(=O)CCC(=O)Nc2ccc3nc(N4CCC(C)CC4)cc(C)c3c2)CC1` was inactive: -2.86%.
In the case of `CCOc1ccc2nc(C)cc(Nc3ccccc3OCC)c2c1` it was inactive: -18.2%; in that of `CCCOc1ccc(CNC(=O)C(CC)n2nc(C)c3sc4ccccc4c3c2=O)cc1` (stereo not given), inactive: -1.31%.
In the case of `COc1ccc(CCNC(=O)C2(c3cccs3)CCOCC2)cc1OC` it was inactive: -8.69%.
Consider `COc1ccc2[nH]c(C)c(CCNS(=O)(=O)c3cc(F)ccc3OC)c2c1`, for which the “activation” value is inactive: -7.47%.
In the case of `COc1cc(OC)cc(C(=O)Nc2ccccc2-c2nc3ccccc3s2)c1`, the “activation” value was inactive: -12.6%.
In the case of `CN(C)c1ccc(C(CNC(=O)c2ccc(C(C)(C)C)cc2)N2CCOCC2)cc1` (stereo not given) it was inactive: -14.4%.
